# Laboratory results: the supplement of paper PMC9135407
# Where “and” joins values, the source holds several entries; their conditions need not be identical. Equal entries are not always repeated. Structures can show the parent of a compound that is named as a salt. About 620 (11%) of roughly 5,800 compounds showed activity.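 The calls were made as follows: active = score above a cut-off or among the top three wells of a plate; in these data no inactive exceeds 0.85.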 This is a selection; strong and weak results do not stand in their true shares.
# Test system: primary human hepatic stellate cells (donor 1)
# Assay: scaled lipid accumulation score (0 = DMSO-like, 1 = nortriptyline-like); higher = stronger HSC inactivation (lipid re-accumulation), active = hit call of the paper
# Conditions: 48 h
# [1] = library stock concentration: 10 mM
# [2] = library stock concentration: 80 uM
# [3] = library stock concentration: 400 uM
# [4] = library stock concentration: 2 mM
# [5] = library stock concentration: 3.33 mM
# [6] = library stock concentration: 1 mM
structure (smiles),measurement,setting,value
CN(CCCN1c2ccccc2CCc2ccccc21)CC(=O)c1ccc(Cl)cc1,scaled lipid accumulation score,[1],inactive: 0.191
CN(CCCN1c2ccccc2CCc2ccccc21)CC(=O)c1ccc(Cl)cc1 [Lofepramine],scaled lipid accumulation score,[1],inactive: 0.323
CN(C)CCOC(c1ccccc1)c1ccccc1.Cn1c(=O)c2[nH]c(Cl)nc2n(C)c1=O [Dimenhydrinate],scaled lipid accumulation score,,inactive: 0.238
same,scaled lipid accumulation score,[1],inactive: ≤ 0
CCS(=O)(=O)N1CC(CC#N)(n2cc(-c3ncnc4[nH]ccc34)cn2)C1 [Baricitinib],scaled lipid accumulation score,[2],inactive: ≤ -0.016
same,scaled lipid accumulation score,[3],inactive: ≤ -0.016
same,scaled lipid accumulation score,[4],inactive: ≤ -0.016
same,scaled lipid accumulation score,[1],inactive: 0.04
CCS(=O)(=O)N1CC(CC#N)(n2cc(-c3ncnc4[nH]ccc34)cn2)C1,scaled lipid accumulation score,[5],inactive: ≤ 0
same,scaled lipid accumulation score,[1],inactive: ≤ 0
"COC(=O)c1ccc2c(c1)NC(=O)/C2=C(\Nc1ccc(N(C)C(=O)CN2CCN(C)CC2)cc1)c1ccccc1 [Intedanib (BIBF 1120, Vargatef) (10 mM)]",scaled lipid accumulation score,[1],active: 1.51
CSC(=N)N [S-methyl Isothiourea (hemisulfate)],scaled lipid accumulation score,[6],inactive: ≤ 0
CSC(=N)N [S-Methylisothiourea hemisulfate],scaled lipid accumulation score,[1],inactive: ≤ -0.055
O=C(O)CCC/C=C\C[C@@H]1[C@@H](CC[C@@H](O)CCc2cccc(C(F)(F)F)c2)[C@H](O)C[C@@H]1O,scaled lipid accumulation score,[6],inactive: ≤ 0
CS(=O)(=O)O.Cc1ccc(NC(=O)c2ccc(CN3CCN(C)CC3)cc2)cc1Nc1nccc(-c2cccnc2)n1 [Imatinib],scaled lipid accumulation score,[1],active: 0.969
CCCCCC=CCC=CC=CC=CC(SCC(NC(C)=O)C(=O)O)C(O)CCCC(=O)O (configuration not stated) [N-Acetyl-leukotriene E4],scaled lipid accumulation score,library stock concentration: 100 uM,inactive: 0.032
O=C1NCC2(CCN(CCc3ccccc3)CC2)O1 [Fenspiride hydrochloride],scaled lipid accumulation score,,inactive: 0.11
same,scaled lipid accumulation score,library stock concentration: 6.7 mM,inactive: 0.002
same,scaled lipid accumulation score,[1],inactive: ≤ 0 and inactive: ≤ -0.018
O=C1NCC2(CCN(CCc3ccccc3)CC2)O1 [Fenspiride HCl],scaled lipid accumulation score,[5],inactive: ≤ 0
same,scaled lipid accumulation score,[1],inactive: ≤ -0.001
Clc1ccc2c(c1)CCc1cccnc1C2=C1CCNCC1 [Desloratadine],scaled lipid accumulation score,[5],inactive: 0.268
same,scaled lipid accumulation score,[1],inactive: 0.837
Clc1ccc2c(c1)CCc1cccnc1C2=C1CCNCC1 [Desloratidine],scaled lipid accumulation score,library stock concentration: 6.4 mM,inactive: 0.46
Cl.N[C@@H](CCC(=O)O)C(=O)O [L-Glutamic acid hydrochloride],scaled lipid accumulation score,[1],inactive: ≤ -0.07
O=C1C[C@@H]2[C@@H](CC[C@@H](O)CCc3ccccc3)[C@H](O)C[C@@H]2O1 [Latanoprost Lactone Diol],scaled lipid accumulation score,[6],inactive: 0.003
COc1ccc(S(=O)(=O)N(CCO)c2ccccc2CN(C)CC=Cc2ccc(Cl)cc2)cc1.O=P(=O)OO.[H] [KN-93 Phosphate],scaled lipid accumulation score,[1],active: 1.07
CC(=O)[C@@]1(O)CC[C@H]2[C@@H]3CCC4=CC(=O)CC[C@]4(C)[C@H]3CC[C@@]21C [17alpha-hydroxyprogesterone],scaled lipid accumulation score,[1],inactive: ≤ -0.07
CC(=O)[C@@]1(O)CC[C@H]2[C@@H]3CCC4=CC(=O)CC[C@]4(C)[C@H]3CC[C@@]21C,scaled lipid accumulation score,[1],inactive: ≤ 0
Nc1nccc(Oc2ccc(NC(=O)c3c[nH]cc(-c4ccc(F)cc4)c3=O)cc2F)c1Cl,scaled lipid accumulation score,[5],inactive: ≤ 0
same,scaled lipid accumulation score,[1],inactive: 0.182
Cc1nc2c(-c3cnc(N)nc3)nc(N3CCOCC3)nc2n1C(C)C,scaled lipid accumulation score,[5],inactive: 0.019
same,scaled lipid accumulation score,[1],inactive: ≤ -0.001
NC(=O)Nc1cc(-c2cccc(F)c2)sc1C(=O)N[C@H]1CCCNC1,scaled lipid accumulation score,[2],inactive: ≤ 0
same,scaled lipid accumulation score,[3],inactive: 0.06 and inactive: ≤ -0.005
same,scaled lipid accumulation score,[4],inactive: 0.23 and inactive: 0.444
same,scaled lipid accumulation score,[1],inactive: 0.559 and inactive: 0.276
O=C(c1ccc(F)cc1)C1CCN(CCn2c(=O)[nH]c3ccccc3c2=O)CC1 [Ketanserin tartrate],scaled lipid accumulation score,library stock concentration: 5.1 mM,inactive: 0.139 and inactive: ≤ 0
same,scaled lipid accumulation score,[1],inactive: ≤ 0 and inactive: 0.066 and inactive: 0.175
O=C(c1ccc(F)cc1)C1CCN(CCn2c(=O)[nH]c3ccccc3c2=O)CC1 [Ketanserin tartrate hydrate],scaled lipid accumulation score,,inactive: 0.115
O=C(c1ccc(F)cc1)C1CCN(CCn2c(=O)[nH]c3ccccc3c2=O)CC1 [Ketanserin],scaled lipid accumulation score,[5],inactive: 0.005
same,scaled lipid accumulation score,[1],inactive: ≤ 0
"CC[C@@H](CO)Nc1nc(NCc2ccc(-c3ccccn3)cc2)c2ncn(C(C)C)c2n1 [CR8, (S)-Isomer]",scaled lipid accumulation score,[5],inactive: ≤ 0
CCN(CC)C(=O)c1ccc(O)c(OC)c1 [Vanillic acid diethylamide],scaled lipid accumulation score,[1],inactive: 0.074
CCN(CC)C(=O)c1ccc(O)c(OC)c1 [Ethamivan],scaled lipid accumulation score,,inactive: 0.045
same,scaled lipid accumulation score,library stock concentration: 9 mM,inactive: ≤ 0
Cc1noc(NS(=O)(=O)c2cccc3c(N(C)C)cccc23)c1C,scaled lipid accumulation score,[1],inactive: ≤ -0.006
COc1ccc(-c2cc(=O)c3c(O)c(OC)c(OC)c(OC)c3o2)cc1 [Gardenin b],scaled lipid accumulation score,[1],inactive: 0.187
NC1(C(=O)O)CC1 [1-Aminocyclopropanecarboxylic acid hydrochloride],scaled lipid accumulation score,[1],inactive: 0.058
CN(C)c1ccc(-c2nc3c(N4CCN(CC(=O)Nc5nccs5)CC4)c(Cl)cnc3[nH]2)cc1,scaled lipid accumulation score,[5],active: 0.858
same,scaled lipid accumulation score,[1],active: 0.949
CCCCCCCCCCCCCCCC(=O)OC[C@H](O)[C@H]1OC(=O)C(O)=C1O [Ascorbyl palmitate],scaled lipid accumulation score,library stock concentration: 4.8 mM,inactive: 0.002
CCCCCCCCCCCCCCCCOC[C@H](COP(=O)([O-])OCCCCCC[N+](C)(C)C)OC(C)=O [Hexanolamino PAF C-16],scaled lipid accumulation score,[6],inactive: ≤ 0
COc1ccc(C2(O)OC(=O)C(c3ccc4c(c3)OCO4)=C2Cc2cc(OC)c(OC)c(OC)c2)cc1 (configuration not stated),scaled lipid accumulation score,[1],inactive: 0.037
Cc1ccc(NC(=O)NCCSCc2ccc(CN(C)C)o2)cc1Cl,scaled lipid accumulation score,[1],active: 0.931
Cc1csc(-c2nnc(Nc3ccc(Oc4ncccc4-c4ccnc(N)n4)cc3)c3ccccc23)c1,scaled lipid accumulation score,[5],inactive: ≤ 0
same,scaled lipid accumulation score,[1],inactive: ≤ 0
Nc1nc2c(ncn2COC(CO)CO)c(=O)[nH]1 [Ganciclovir],scaled lipid accumulation score,,inactive: ≤ 0
same,scaled lipid accumulation score,[5],inactive: ≤ 0
same,scaled lipid accumulation score,library stock concentration: 7.8 mM,inactive: ≤ 0
same,scaled lipid accumulation score,[1],inactive: ≤ 0 and inactive: ≤ -0.07
c1ccc2c(CCNc3ccc(Nc4ccncc4)cc3)c[nH]c2c1,scaled lipid accumulation score,[2],inactive: 0.025
same,scaled lipid accumulation score,[3],inactive: 0.211
same,scaled lipid accumulation score,[4],inactive: 0.167
same,scaled lipid accumulation score,[5],inactive: 0.347
same,scaled lipid accumulation score,[1],inactive: 0.232 and inactive: 0.843
NCCCCCC(=O)O,scaled lipid accumulation score,[5],inactive: ≤ 0
same,scaled lipid accumulation score,[1],inactive: ≤ 0
NCCCCCC(=O)O [6-aminocaproic acid],scaled lipid accumulation score,[1],inactive: ≤ 0
NCCCCCC(=O)O [6-Aminohexanoic acid],scaled lipid accumulation score,[1],inactive: 0.153
NCCCCCC(=O)O [Aminocaproic acid],scaled lipid accumulation score,,inactive: ≤ 0
same,scaled lipid accumulation score,library stock concentration: 15.2 mM,inactive: ≤ -0.001
CC(C)CCNC(=O)[C@H](CC(C)C)NC(=O)[C@H]1O[C@@H]1C(=O)O [Loxistatin Acid (E-64C)],scaled lipid accumulation score,[5],inactive: ≤ -0.009
same,scaled lipid accumulation score,[1],inactive: ≤ 0
CN(C)C(=N)NC(=N)N [Metformin hydrochloride],scaled lipid accumulation score,,inactive: ≤ 0
same,scaled lipid accumulation score,[1],inactive: ≤ -0.027
same,scaled lipid accumulation score,library stock concentration: 12.1 mM,inactive: ≤ 0
CN(C)C(=N)NC(=N)N [Metformin],scaled lipid accumulation score,library stock concentration: 15.5 mM,inactive: ≤ -0.006
COc1c(C)cnc(Cn2cnc3c(Cl)nc(N)nc32)c1C,scaled lipid accumulation score,[1],inactive: 0.768
CC=CC(=O)N(CC)c1ccccc1C [Crotamiton],scaled lipid accumulation score,,inactive: ≤ 0
same,scaled lipid accumulation score,[1],inactive: ≤ -0.027
c1cn2cc(-c3ccc4cn[nH]c4c3)nc(Nc3ccc(N4CCOCC4)cc3)c2n1,scaled lipid accumulation score,[5],active: 1.04
same,scaled lipid accumulation score,[1],active: 0.944
CC1=C(C)C(=O)C(C(CCCCCC(=O)O)c2ccccc2)=C(C)C1=O (configuration not stated),scaled lipid accumulation score,[1],inactive: ≤ 0
CC(C)Oc1ccc(-c2cnc3c(-c4ccnc5ccccc45)cnn3c2)cc1,scaled lipid accumulation score,[5],inactive: ≤ -0.009
same,scaled lipid accumulation score,[1],inactive: ≤ 0
CNCCCN1c2ccccc2CCc2ccccc21.Cl [Desipramine hydrochloride],scaled lipid accumulation score,,active: 0.887
Cn1ncnc1[C@H]1c2n[nH]c(=O)c3cc(F)cc(c23)N[C@@H]1c1ccc(F)cc1,scaled lipid accumulation score,[5],inactive: ≤ 0
same,scaled lipid accumulation score,[1],inactive: ≤ -0.001
C=CCN(C)CCCCCCOc1ccc(C(=O)c2ccc(Br)cc2)c(F)c1,scaled lipid accumulation score,[6],inactive: 0.116
CC(=O)O[C@]1(C(C)=O)CC[C@H]2[C@@H]3C=C(Cl)C4=CC(=O)CC[C@]4(C)[C@H]3CC[C@@]21C [Chlormadinone acetate],scaled lipid accumulation score,library stock concentration: 4.5 mM,inactive: 0.064
same,scaled lipid accumulation score,library stock concentration: 4.9 mM,inactive: 0.08
CCN(CC)C(C)CN1c2ccccc2Sc2ccccc21 (configuration not stated) [Ethopropazine hydrochloride],scaled lipid accumulation score,,inactive: 0.644
same,scaled lipid accumulation score,library stock concentration: 5.7 mM,inactive: 0.667
same,scaled lipid accumulation score,[1],inactive: 0.301 and inactive: 0.673
CCCNC(=O)NS(=O)(=O)c1ccc(Cl)cc1 [Chlorpropamide],scaled lipid accumulation score,,inactive: ≤ 0
same,scaled lipid accumulation score,[5],inactive: ≤ 0
same,scaled lipid accumulation score,library stock concentration: 7.2 mM,inactive: 0.007
same,scaled lipid accumulation score,[1],inactive: 0.001 and inactive: ≤ 0
CCCNC(=O)NS(=O)(=O)c1ccc(Cl)cc1,scaled lipid accumulation score,[1],inactive: ≤ 0
Cl.Nc1ccc(C(=O)Nc2cccc(-c3nc(N4CCOCC4)c4oc5ncccc5c4n3)c2)cn1,scaled lipid accumulation score,[4],active: 1.74
same,scaled lipid accumulation score,[1],active: 1.25
Cc1cc(O)c(C(=O)N[C@@H](C(=O)N[C@@H]2C(=O)N3C(C(=O)O)=C(CSc4nnnn4C)CS[C@H]23)c2ccc(O)cc2)cn1,scaled lipid accumulation score,[1],inactive: ≤ 0
COc1cc(-c2ncn(/C=C\C(=O)OC(C)C)n2)cc(C(F)(F)F)c1,scaled lipid accumulation score,[5],inactive: ≤ -0.009
same,scaled lipid accumulation score,[1],inactive: ≤ 0
N=C(N)NCCCCNC(=N)N [Arcaine sulfate],scaled lipid accumulation score,,inactive: ≤ 0
same,scaled lipid accumulation score,[1],inactive: ≤ 0
